In PubChem BioAssay AID540267 (National Center for Advancing Translational Sciences (NCATS), 2011):
The campaign covered roughly 340,000 compounds. About 530 (0.16%) were called active. The shares of active, inactive and inconclusive entries below differ from those in the screen. No stated cut-off is given here; in the data, active means activity change below about -80%; inconclusive means between about -30% and that limit; inactive means weaker than that.

test: Small Molecules that selectively kill Giardia lamblia: qHTS; conditions: Giardia lamblia trophozoite viability; at 7.66 µM; hits give low values;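 further: parasites exposed to compound for two days anaerobically before the ATP read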
How it was run: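 Giardia lamblia trophozoites (100 cells/well) were incubated with compounds for 48 h at 37 deg C under anaerobic conditions. Viability was read as ATP content by one-step luminescence after 15-30 min at room temperature.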
On the % scale 0 is the no-effect control and ±100 the full control effect.

Compound	activity change
NNC(=O)c1ccc(N2CCCCCC2)c([N+](=O)[O-])c1	inconclusive: -31.1% [inhibitor]
Nc1nc2sc3c(c2cc1C(=O)NCC(=O)O)CCCC3	inconclusive: -50.7% [inhibitor]
O=C(Nc1ccc(N2CCOCC2)cc1)c1cn2ccccc2n1	inconclusive: -72% [inhibitor]
COCCn1c(C)cc(C(=O)COc2ccc(C)nc2[N+](=O)[O-])c1C	inconclusive: -57.1% [inhibitor]
COc1ccc(C(CNC(=O)c2ccc(N3CCCC3=O)cc2)N2CCCC2)cc1 (stereo not given)	inconclusive: -32.6% [inhibitor]
COc1ccc(Cc2nnc(NC(=O)Nc3ccccc3F)s2)cc1OC	inconclusive: -53.2% [inhibitor]
CN(/C=C/C(=C/C=[N+](C)c1ccccc1)OCCCS(=O)(=O)[O-])c1ccccc1	inconclusive: -39.5% [inhibitor]
CN(C(=O)CSc1nc2ccccc2c(=O)n1-c1ccc(F)cc1)C1CCS(=O)(=O)C1 (stereo not given)	inconclusive: -46.5% [inhibitor]
C=CCc1c(C)nc(SC(C)C)[nH]c1=O	inactive: -10.2%
CCCCN1C(=O)C(=O)N(CC(=O)Nc2sc(C)c(CC)c2C(=O)OCC)C1=O	inconclusive: -34.3% [inhibitor]
Cc1ccn2c(C(=O)NNC(=O)Nc3ccc(Cl)cc3)c(C)nc2c1	inactive: 9.34%
O=C(N/N=C/c1ccc([N+](=O)[O-])o1)c1cn(-c2ccccc2)nc1-c1ccc(F)cc1	active: -93%
CNS(=O)(=O)c1cccc(C(=O)OCC(=O)c2cc(C)n(CC3CCCO3)c2C)c1 (stereo not given)	inconclusive: -46.2% [inhibitor]
C#CCOCCOCCOCCNc1nc(N2CCN(C(=O)CCCCCCCCCCNC(=O)Cn3cc(C[C@@H](C)O)nn3)CC2)nc(N2CCN(C(=O)CCCCCCCCCCNC(=O)[C@H](CO)n3cc(CCCSC)nn3)CC2)n1	inactive: 8.72%
CC12CCC(C(=O)N3CCN(Cc4ccccc4)CC3)(OC1=O)C2(C)C (stereo not given)	inactive: 14.9%
COc1ccccc1CN1C(=O)[C@H]2Cc3c([nH]c4ccccc34)C(C)(C)N2C1=O	inconclusive: -35.9% [inhibitor]
O=c1c(-c2ccccc2)coc2cc(O)ccc12	inconclusive: -40.7% [inhibitor]
Cc1ccccc1S(=O)(=O)Cc1ccc(C(=O)NCCN2CCN(Cc3ccccc3)CC2)o1	inconclusive: -30.5% [inhibitor]
O=C1NC2(CCCCCC2)C(=O)N1Cc1ccccc1Br	inactive: -8.3%
CON(C)C(=O)c1ccccc1N(C)C(=O)OC(C)(C)C	inconclusive: -30.4% [inhibitor]
